This note sets out measurements from article PMC4336329 (PLoS ONE, 2015).

Molecules are shown by their SMILES. Among all 310,000 compounds or so, about 14,000 (4.5%) showed an effect of 50% or more. Effects have a minus sign here. This is one part of the list.
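Also: peak tail current of the secondary pulse compared with the same well before compound.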

The target of the assay is human ether-à-go-go-related gene (hERG) potassium channel (human, UniProt Q12809). The assay can be described thus: primary screen, population patch clamp on CHO cells stably expressing hERG.
human ether-à-go-go-related gene (hERG) potassium channel, sequence (Q12809 whole entry, looked up): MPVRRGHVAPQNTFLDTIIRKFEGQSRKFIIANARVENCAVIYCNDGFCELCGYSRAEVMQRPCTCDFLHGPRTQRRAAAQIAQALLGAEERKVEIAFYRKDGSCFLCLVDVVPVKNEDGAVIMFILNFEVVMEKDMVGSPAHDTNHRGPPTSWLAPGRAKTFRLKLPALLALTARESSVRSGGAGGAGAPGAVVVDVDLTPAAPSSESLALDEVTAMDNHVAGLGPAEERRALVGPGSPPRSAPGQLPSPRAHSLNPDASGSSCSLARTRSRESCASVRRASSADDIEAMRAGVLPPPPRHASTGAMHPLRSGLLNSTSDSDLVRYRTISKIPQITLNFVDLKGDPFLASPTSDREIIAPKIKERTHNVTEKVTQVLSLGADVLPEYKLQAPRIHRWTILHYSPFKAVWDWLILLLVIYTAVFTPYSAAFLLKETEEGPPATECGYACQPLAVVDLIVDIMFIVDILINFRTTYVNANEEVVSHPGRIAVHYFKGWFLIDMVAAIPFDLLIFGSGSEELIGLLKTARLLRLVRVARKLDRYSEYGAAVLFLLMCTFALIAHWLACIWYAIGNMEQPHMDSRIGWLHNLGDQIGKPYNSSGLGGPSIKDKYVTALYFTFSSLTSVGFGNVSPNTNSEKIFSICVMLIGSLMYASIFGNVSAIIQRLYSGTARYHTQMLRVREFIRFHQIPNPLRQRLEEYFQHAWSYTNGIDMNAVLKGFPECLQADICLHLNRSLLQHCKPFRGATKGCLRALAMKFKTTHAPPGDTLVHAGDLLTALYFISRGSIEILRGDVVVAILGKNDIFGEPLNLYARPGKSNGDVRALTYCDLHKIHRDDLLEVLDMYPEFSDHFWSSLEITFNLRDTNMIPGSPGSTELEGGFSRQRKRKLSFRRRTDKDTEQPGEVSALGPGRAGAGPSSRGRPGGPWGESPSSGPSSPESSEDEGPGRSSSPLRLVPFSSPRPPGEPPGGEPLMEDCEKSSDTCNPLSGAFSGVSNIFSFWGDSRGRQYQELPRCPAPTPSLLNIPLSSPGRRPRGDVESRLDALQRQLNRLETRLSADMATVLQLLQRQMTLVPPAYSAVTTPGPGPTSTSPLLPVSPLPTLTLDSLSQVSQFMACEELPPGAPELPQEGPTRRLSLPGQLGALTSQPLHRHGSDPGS
Regarding `CN(NC(=O)C1CC(=O)N(c2ccccc2)C1)C1=NS(=O)(=O)c2ccccc21` (stereo not shown), the “hERG current change (%, negative = inhibition) at 10uM” value is 9.65%. As to `CCCn1c(=NC(=O)CCS(=O)(=O)c2ccccc2)sc2cc(S(N)(=O)=O)ccc21`, the “hERG current change (%, negative = inhibition) at 10uM” value was -7.03%. With `O=c1oc2ccccc2nc1/C=C(O)/C=C\c1ccccc1` the figure was 12%; with `CC(Oc1ccc(F)cc1)C(=O)N(Cc1ccccc1)c1c(N)n(Cc2ccccc2)c(=O)[nH]c1=O` (stereo not shown), -13.9%; with `C=CCn1c(CCNC(=O)c2ccccc2F)nnc1SCC(=O)Nc1ccccc1F`, -11.2%.

Turning to `CCCn1c(N)c(Sc2ccc(Cl)cc2)c(=O)n(CCC)c1=O`, the “hERG current change (%, negative = inhibition) at 10uM” value is on record as -43.3%. In the case of `Cc1ccc(-c2cc(C(=O)OCC(=O)N(C)C3CCS(=O)(=O)C3)c3ccccc3n2)o1` (stereo not shown), the “hERG current change (%, negative = inhibition) at 10uM” value is on record as -19.1%. With `N#Cc1nc(COc2ccc(F)cc2)oc1N1CCCC1`, the “hERG current change (%, negative = inhibition) at 10uM” value is recorded as -46.7%. With `CN1/C(=C\C=Nc2cc(S(=O)(=O)N3CCOCC3)ccc2N2CCOCC2)C(C)(C)c2ccccc21`, the “hERG current change (%, negative = inhibition) at 10uM” value is on record as -71%. In the case of `COc1ccc(CC2(CO)CCN(S(=O)(=O)c3sccc3C)CC2)cc1`, the “hERG current change (%, negative = inhibition) at 10uM” value is -20.9%. As for `CSc1ccccc1C(=O)NC1CCCC1`, the “hERG current change (%, negative = inhibition) at 10uM” value stood at 20.8%. Take `COc1ccc(OCc2cc(C(=O)NC(C)Cc3cnccn3)no2)c(Cl)c1` (stereo not shown): the “hERG current change (%, negative = inhibition) at 10uM” value is on record as -4.5%. For the molecule `CCOC(=O)CN(C(=O)CNC(=O)c1cccs1)C(C(=O)NC1CCCC1)c1ccncc1` (stereo not shown), the “hERG current change (%, negative = inhibition) at 10uM” value is 20.5%.

`CCOC(=O)c1sc(N(Cc2ccccc2)C(=O)CCl)nc1C`: the “hERG current change (%, negative = inhibition) at 10uM” value is on record as -6.21%.

`O=[N+]([O-])c1cc(C(F)(F)F)ccc1N/N=C/c1cc2ccccc2nc1Cl`: the “hERG current change (%, negative = inhibition) at 10uM” value worked out at 11.8%. For the molecule `CCOC(=O)C1=C(N)OC2=C(C(=O)CCC2)[C@]12C(=O)N(CC(N)=O)c1ccccc12`, the “hERG current change (%, negative = inhibition) at 10uM” value was 20.7%. For `Nc1cc(Br)c(N)c(Br)c1`, the “hERG current change (%, negative = inhibition) at 10uM” value is on record as -7.67%.

Take `O=C(Nc1ncc2c(n1)CC(c1ccccc1)CC2=O)c1ccco1` (stereo not shown): the “hERG current change (%, negative = inhibition) at 10uM” value is listed as -21.9%. With `CCN(CC(=O)Nc1ccc(NC(C)=O)cc1)C(=O)c1cc(C)on1` the figure was 17.1%; with `COCCn1c(SCC(=O)c2ccc(CNC(C)=O)o2)nc2ccccc2c1=O`, -6.18%.

`O=C(CN1C(=O)/C(=C2\SC(=S)N(C3CCS(=O)(=O)C3)C2=O)c2ccccc21)Nc1ccc(F)cc1` (stereo not shown): the “hERG current change (%, negative = inhibition) at 10uM” value is reported as 13.4%.

`CC(=O)N1NC(=Nc2ccccc2)SC1(C)C`: the “hERG current change (%, negative = inhibition) at 10uM” value came to 10.1%. `COc1cc(/C=N/NC(=O)c2ccc3c(c2)OCCO3)cc(Cl)c1O`: the “hERG current change (%, negative = inhibition) at 10uM” value turned out to be 3.2%. As for `COC(=O)c1cc2occc2n1CC(=O)N(C)C1CCCCC1`, the “hERG current change (%, negative = inhibition) at 10uM” value is -2.32%. In the case of `Cc1ccc(S(=O)(=O)Cn2nnnc2C(c2ccccc2)N2CCN(c3ccccc3)CC2)cc1` (stereo not shown), the “hERG current change (%, negative = inhibition) at 10uM” value turned out to be 15.1%. In the case of `COc1ccc(CN(C(=O)c2ccc(C)cc2)C2CCS(=O)(=O)C2)cc1` (stereo not shown), the “hERG current change (%, negative = inhibition) at 10uM” value is -18.5%. The value for `O=C(NC1CCCC1)c1nc2c(nnn2Cc2cccc(Cl)c2)c(=O)[nH]1` was -10.9%; that for `CSc1ccc(/C=C(\C#N)C(=O)NC2CCCCC2)cc1` was 2.94%.

As to `CC1CC(=O)c2cnc(Nc3ccccc3)nc2C1` (stereo not shown), the “hERG current change (%, negative = inhibition) at 10uM” value is recorded as -6.44%. As to `COc1ccc(-n2c(C)c([N+](=O)[O-])c3ccc(O)c(CN4CCCCC4)c32)cc1.Cl`, the “hERG current change (%, negative = inhibition) at 10uM” value stood at 11.5%. For the molecule `Cc1ccc(C(C)C)c(OCCNC(=S)Nc2cccc3ccccc23)c1`, the “hERG current change (%, negative = inhibition) at 10uM” value amounted to 15.6%. The value for `O=C(Nc1ccc(F)cc1)C1CCCO1` (stereo not shown) was 22.1%. With `CC(=O)Nc1cc(C(=O)NCc2ccco2)ccc1Sc1ccc(C)cc1` the figure was -17.8%. Turning to `CCc1ccccc1NC(=O)CSc1nnc(-c2cc(C)[nH]n2)n1N`, the “hERG current change (%, negative = inhibition) at 10uM” value is -4.24%.

As for `O=c1c2ccccc2nc(-c2ccc(Cl)cc2Cl)n1-c1ccncc1`, the “hERG current change (%, negative = inhibition) at 10uM” value was -9.6%. In the case of `Cc1cccc(CSCCNC(=O)COc2ccc(Cl)cc2)c1`, the “hERG current change (%, negative = inhibition) at 10uM” value was -1.04%. Consider `O=C(c1cccnc1)c1cc2ccccc2[nH]1`, for which the “hERG current change (%, negative = inhibition) at 10uM” value is reported as 3.05%.

Consider `O=C(CCCN1C(=O)c2ccccc2C1=O)NCc1cccnc1`, for which the “hERG current change (%, negative = inhibition) at 10uM” value is listed as -20.6%. With `CCCCN(C(=N)N1CCCCC1)c1nc(C)c([N+](=O)[O-])c(=O)[nH]1` the figure was 1.79%. For the molecule `C/C(=N\OC(=O)C1CC1)C1CC1c1ccc(F)cc1` (stereo not shown), the “hERG current change (%, negative = inhibition) at 10uM” value is reported as 7.66%.

For the molecule `CCCCC1(CC(=O)OC)C(=O)N(c2ccccc2)N(c2ccccc2)C1=O`, the “hERG current change (%, negative = inhibition) at 10uM” value is -7.76%. With `CCOC(=O)c1cc2occc2n1CC(=O)NC1CCCCC1C` (stereo not shown) the figure was 9.72%; with `Cc1cc(C(=O)CN2C(=O)c3cccc(N)c3C2=O)c(C)n1Cc1cccs1`, 6.32%.
